# Assay results from PubChem BioAssay AID330 (DTP/NCI, 2004).
# Toxic doses and inconclusive results are not listed. Not every entry of the source has a single result; some have several. The other results are left out here. The source may hold further records. Results that share an entry are repeats across runs, samples, wells, individuals or studies. Brackets tell where a record comes from. The letters are not those of the source and start again with each entry.
# System: P388 leukemia ip, CD2F1 mice, survival T/C
# Test: NCI In Vivo Anticancer Drug Screen. Data for tumor model P388 Leukemia (intraperitoneal) in CD2F1 (CDF1) mice
# Details: endpoint: median survival time, higher = longer survival
# [1] = dose: 200.0 mg/kg/injection, schedule: Q04DX003 (ip), vehicle: saline with Tween-80
smiles,measurement,setting,value
Nc1nc2c(ncn2C2OC(CO)C(O)C2O)c(=O)[nH]1 (centres undefined),T/C,[1],100 % of control [sample A] and 187 % of control [sample B]
CC(=O)OC(C(=O)O)N1C(=O)C2C3C=CC(C2C1=O)C1C2C(=O)N(C(OC(C)=O)C(=O)O)C(=O)C2C31 (centres undefined),T/C,"dose: 200.0 mg/kg/injection, schedule: Q01DX009 (ip), vehicle: water",121 % of control and 175 % of control
COc1cccc2c1C(=O)c1c(O)c3c(c(O)c1C2=O)C[C@@](O)(/C(CO)=N/NS(=O)(=O)c1ccc(C)cc1)C[C@@H]3OC1CC(N)C(O)C(C)O1 (some centres undefined),T/C,"dose: 6.25 mg/kg/injection, schedule: Q01DX009 (ip), vehicle: water",116 % of control and 171 % of control
CCCSc1ccc2nc(NC(=O)OC)[nH]c2c1,T/C,"dose: 240.0 mg/kg/injection, schedule: Q01DX005 (ip), vehicle: saline with Tween-80",120 % of control and 157 % of control
COc1ccc2c(c1O)-c1cccc3c1[C@@H](C2)N(CCCl)CC3,T/C,"dose: 50.0 mg/kg/injection, schedule: Q04DX003 (ip), vehicle: other",97 % of control and 157 % of control
N#Cc1ccc(NC(=O)Nc2nccs2)cc1,T/C,"dose: 100.0 mg/kg/injection, schedule: Q01DX009 (ip), vehicle: distilled water + Tween-80","90 % of control, 108 % of control, 170 % of control"
COc1cc2cc[n+]3c(C)c4ccc(OC)c(OC)c4cc3c2cc1OC (tested in a mixture with another compound),T/C,"dose: 60.0 mg/kg/injection, schedule: Q01DX009 (ip), vehicle: saline",107 % of control and 150 % of control
C=C1C(O)C2(O)OCC34C(CC5C(C)=CC(=O)C(O)C5(C)C23)OC(=O)C(OC(=O)C(C)(O)CC)C14 (centres undefined),T/C,"dose: 2.0 mg/kg/injection, schedule: Q01DX009 (ip), vehicle: saline + alcohol",114 % of control and 154 % of control
O=C1CCC(n2cc(F)c(=O)[nH]c2=O)O1 (centres undefined),T/C,[1],"98 % of control, 104 % of control, 178 % of control"
CCOC(=O)C(Cc1ccccc1)NC(=O)N(CCCl)CCCl (centres undefined),T/C,"dose: 100.0 mg/kg/injection, schedule: Q04DX003 (ip), vehicle: saline with Tween-80",109 % of control and 154 % of control
CCN(CC)CCNc1ccc(CO)c2oc3ccc(O)cc3c(=O)c12,T/C,"dose: 200.0 mg/kg/injection, schedule: Q01DX005 (ip), vehicle: saline with Tween-80",121 % of control and 163 % of control
COc1cc(C2c3cc4c(cc3CC3COC(=O)N32)OCO4)cc(OC)c1OC (centres undefined),T/C,"dose: 30.0 mg/kg/injection, schedule: Q01DX005 (ip), vehicle: Klucel (hydroxypropylcellulose) (HPC)","108 % of control, 111 % of control, 151 % of control"
COC(=O)[C@@]12OC[C@]34[C@H]([C@@H](O)[C@@H]1O)[C@@]1(C)CC(=O)C(O)=C(C)[C@@H]1C[C@H]3OC(=O)[C@H](OC(=O)/C=C(\C)C(C)CO)[C@@H]24 (some centres undefined),T/C,"dose: 1.0 mg/kg/injection, schedule: Q01DX009 (ip), vehicle: saline + alcohol",121 % of control and 155 % of control
CCCCCCCCCCCC(=O)NCC(=O)NC1C(C)OC(Nc2ncnc3nc[nH]c23)C(O)C1O (centres undefined),T/C,"dose: 2.0 mg/kg/injection, schedule: Q01DX009 (ip), vehicle: other",118 % of control and 150 % of control
COc1cccc2c1C(=O)c1c(O)c3c(c(O)c1C2=O)C[C@@](O)(C(=O)CN1CCN(C)CC1)C[C@@H]3OC1CC(N)C(O)C(C)O1 (some centres undefined),T/C,"dose: 12.5 mg/kg/injection, schedule: Q01DX009 (ip), vehicle: water",100 % of control and 159 % of control
Nc1cc2[nH]cnc2c(=O)[nH]1,T/C,"dose: 50.0 mg/kg/injection, schedule: Q01DX009 (ip), vehicle: suspension in saline","100 % of control, 118 % of control, 150 % of control"
NC(CCC(=O)NC(CSC(c1ccccc1)(c1ccccc1)c1ccccc1)C(=O)NCC(=O)O)C(=O)O (centres undefined),T/C,"dose: 240.0 mg/kg/injection, schedule: Q01DX005 (ip), vehicle: Klucel (hydroxypropylcellulose) (HPC)",123 % of control and 153 % of control
ClCCN(CCCl)c1ccc(CCN2CCOCC2)cc1,T/C,"dose: 50.0 mg/kg/injection, schedule: Q01DX009 (ip), vehicle: saline",106 % of control and 151 % of control
CNC(=O)OCc1c(COC(=O)NC)c(-c2ccc(Cl)c(Cl)c2)n(C)c1C,T/C,"dose: 25.0 mg/kg/injection, schedule: Q01DX009 (ip), vehicle: distilled water + Tween-80",117 % of control and 163 % of control
